# Data reported in paper PMC4336329 (PLoS ONE, 2015).
# Hit rate of the full screen: of about 310,000 compounds, about 2,200 (0.71%) showed an effect of 50% or more. Effects have a minus sign here. This is one part of the list.
# Target: human ether-à-go-go-related gene (hERG) potassium channel (human, UniProt Q12809)
# Assay: primary screen, population patch clamp on CHO cells stably expressing hERG
# Sequence of human ether-à-go-go-related gene (hERG) potassium channel (Q12809 whole entry, looked up): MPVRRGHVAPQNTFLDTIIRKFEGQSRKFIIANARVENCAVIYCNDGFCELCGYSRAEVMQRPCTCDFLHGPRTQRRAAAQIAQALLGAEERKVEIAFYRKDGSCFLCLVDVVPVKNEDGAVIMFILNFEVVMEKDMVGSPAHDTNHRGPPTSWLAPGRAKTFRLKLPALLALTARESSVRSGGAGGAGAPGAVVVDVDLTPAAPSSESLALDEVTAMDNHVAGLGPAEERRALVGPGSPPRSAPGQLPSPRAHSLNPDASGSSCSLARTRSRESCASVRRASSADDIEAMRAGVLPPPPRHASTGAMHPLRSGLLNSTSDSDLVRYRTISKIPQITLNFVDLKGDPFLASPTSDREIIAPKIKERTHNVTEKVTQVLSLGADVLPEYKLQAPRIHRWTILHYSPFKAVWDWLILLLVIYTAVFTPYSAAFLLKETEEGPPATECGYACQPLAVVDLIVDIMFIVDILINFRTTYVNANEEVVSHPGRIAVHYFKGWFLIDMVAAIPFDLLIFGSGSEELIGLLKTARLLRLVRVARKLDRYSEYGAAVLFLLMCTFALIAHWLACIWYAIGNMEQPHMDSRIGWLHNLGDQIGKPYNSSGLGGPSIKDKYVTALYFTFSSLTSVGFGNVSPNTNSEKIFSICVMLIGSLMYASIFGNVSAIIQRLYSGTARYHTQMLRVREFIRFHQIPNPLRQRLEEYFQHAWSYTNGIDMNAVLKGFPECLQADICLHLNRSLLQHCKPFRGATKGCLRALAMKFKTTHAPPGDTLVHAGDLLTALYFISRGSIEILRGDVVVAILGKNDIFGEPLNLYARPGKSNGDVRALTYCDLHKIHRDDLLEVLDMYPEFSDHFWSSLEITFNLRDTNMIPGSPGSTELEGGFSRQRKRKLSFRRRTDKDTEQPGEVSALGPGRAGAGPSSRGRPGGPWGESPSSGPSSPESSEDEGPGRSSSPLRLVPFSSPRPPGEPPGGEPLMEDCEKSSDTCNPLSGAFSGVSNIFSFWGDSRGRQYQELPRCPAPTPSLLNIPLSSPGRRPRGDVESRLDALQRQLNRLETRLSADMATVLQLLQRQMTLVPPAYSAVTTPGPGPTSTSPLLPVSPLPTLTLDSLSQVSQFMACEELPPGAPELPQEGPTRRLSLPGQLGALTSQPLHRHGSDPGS
row,Structure (SMILES),"hERG current change (%, negative = inhibition) at 1uM [%]"
1,COCCNc1nnc(SCC(=O)NNC(=O)c2ccco2)s1,9.15
2,COc1ccc(-n2c(=S)[nH]c3cc(C(=O)N(C)Cc4ccccc4)ccc3c2=O)cc1,9.52
3,CC(=O)Oc1ccc(C(=O)Nc2cccc(C(=O)c3cccc(NC(=O)c4ccc(OC(C)=O)cc4)c3)c2)cc1,9.04
4,CCC(CO)NC(=O)C1C=C2c3cccc4[nH]cc(c34)CC2N(C)C1 (centres unmarked),17.8
5,CC(=O)c1ccc(NS(=O)(=O)c2ccc(N/C=C/C(=O)c3ccc(F)cc3)cc2)cc1,11.5
6,COc1ccc(C2C(Oc3ccccc3)C(=O)N2c2ccc(C)c(C)c2)cc1OC (centres unmarked),4.67
7,CC(C)(C)N(NC(=O)Nc1ccccc1)C(=O)c1ccccc1Cl,21.2
8,Cc1ccc(C)c(S(=O)(=O)N2CCN(C(=O)c3cncc(Br)c3)CC2)c1,6.33
9,CCC(=O)NS(=O)(=O)c1cccnc1Nc1ccc(Cl)cc1,12.9
10,CCOC(=O)c1c(C)[nH]c(N=Nc2cccc(C)c2)c1C,10.5
11,O=C(O)Cn1cc(C(=O)c2ccco2)c2ccccc21,16.7
12,O=C(c1ccc(F)cc1)N1CCN(c2ccc([N+](=O)[O-])c(N3CCOCC3)c2)CC1,7.89
13,O=C(Nc1ccccc1C(=O)NCCCN1CCOCC1)c1ccc(Cl)cc1,-0.51
14,COc1cccc(C(C(=O)NC(C)(C)C)N(C(=O)CCC(=O)Nc2cc(C)on2)C(C)C)c1OC (centres unmarked),15.5
15,COc1ccc(N=C(C)C2=C(O)c3ccccc3C2=O)cc1,4.73
16,Cc1cccc(NC(NC(=O)c2ccccn2)C(Cl)(Cl)Cl)c1 (centres unmarked),-2.79
17,COc1ccc(C(=O)NCc2nnc(SCC(=O)N3CCOCC3)o2)cc1,6.33
18,CCCCOC(=O)COc1ccc(Cl)cc1Cl,12.1
19,COc1cccc(NC(=O)Cn2cc3c(n2)CCCCC3)c1,0.129
20,COc1ccc(CNC(=O)Cn2nc(C(F)(F)F)cc2C)cc1,13.1
21,O=C(Cn1c(COc2ccccc2)nc2ccccc21)Nc1cc(Cl)cc(Cl)c1,15.1
22,O=C(O)c1ccccc1NC(=O)c1cc2ccccc2oc1=O,17

row,Structure (SMILES),"hERG current change (%, negative = inhibition) at 1uM [%]"
1,COCCN(Cc1ccccc1)C(=O)c1ccc(C(=O)c2ccccc2)cc1,2.46
2,COc1ccccc1N1CCN(C(=O)C(Sc2ccccc2)c2ccccc2)CC1 (centres unmarked),8.54
3,CSCCC(NC(=O)c1ccco1)C(=O)OCC(=O)N(Cc1ccccc1)C(C)(C)C (centres unmarked),-12.5
4,Cc1ccccc1CSCCNC(=S)Nc1ccccc1,12.2
5,CCc1nc(N2CCN(C(=O)c3ccco3)CC2)c2c3c(sc2n1)CCCC3,-1.27
6,Cc1ccccc1OCc1nnc2n1CC(C)S2 (centres unmarked),9.36
7,O=C(COC(=O)C1CCN(S(=O)(=O)c2ccc3c(c2)OCCO3)CC1)Nc1cc(C(F)(F)F)ccc1Cl,10.2
8,O=C(Nc1ccc2c(c1)OCO2)N1CCOCC1,4.95
9,O=C(c1cccc(C(F)(F)F)c1)N1CCOC12CCN(c1ncc(C(F)(F)F)cc1Cl)CC2,15.3
10,CC1=N/C(=C\c2ccc(OC(C)C)cc2)C(=O)N1c1ccc(C(=O)O)cc1,8.07
11,CC1(C)NC(=O)N(CCOCCOc2ccccc2-c2ccccc2)C1=O,7.58
12,CC(=O)c1cc(CN2CCN(CCC(C)C)C(CCO)C2)cs1 (centres unmarked),1.84
13,CC1(CCC(=O)N2CCCC(N3CCN(c4ccc(F)cc4)CC3)C2)CC1 (centres unmarked),-37.2
14,COc1ccc2c(c1)[C@H]1[C@H](CO2)[C@H](c2ccccc2)[C@]2(C)C(=O)Nc3cc(OC)c(OC)cc3C(=O)N12,11.2
15,CCC(=O)C1CCCN(C(=O)CCc2nnc(C3(c4ccc(Cl)cc4)CCC3)o2)C1 (centres unmarked),-0.0774
16,Cc1cc(=O)[nH]c2cc(Cl)ccc12,16.2
17,Cc1onc(-c2ccccc2)c1C(=O)N/N=C/c1cccc(O)c1,7.79
18,CC(=O)c1cccc(NC(=O)Cn2cnc(S(=O)(=O)N3CCC(C)CC3)c2)c1,9.44
19,Cc1ccc(C(=O)CNc2cccc(Cl)c2)cc1,13.4
20,COc1cc(NC(=S)NC(=O)c2ccc(C(C)(C)C)cc2)ccc1NC(=O)c1cccs1,18.4
21,O=C(COC(=O)c1ccc(S(=O)(=O)C(F)F)cc1)NC(=O)NC1CCCCC1,-13.2
22,O=C(CNC(=O)COc1ccccc1)NCCc1ccccn1,11.2

row,Structure (SMILES),"hERG current change (%, negative = inhibition) at 1uM [%]"
1,CC1CN(c2nc3c(c(=O)[nH]c(=O)n3C)n2Cc2ccccc2F)CC(C)O1 (centres unmarked),2.17
2,COc1ccc(C(=O)NOCc2ccccc2)cc1,6.6
3,CC[C@@]12C(=O)N(c3cccc(Br)c3)C(=O)N1[C@H](c1ccc(F)cc1)[C@@H]1C(=O)N(C3CCCCC3)C(=O)[C@@H]12,3.27
4,CCN(CC)c1ccc(NC(=O)CCNC(=O)c2ccco2)cc1,13.8
5,Cc1ccnc(NC(=O)CCC(=O)N(CC(=O)NCc2ccc(F)cc2)Cc2ccco2)c1,-2.79
6,CCCN1C(=O)c2cc(C(=O)O)ccc2C1O (centres unmarked),12.7
7,CCO[C@@H]1OC(C(=O)NC2CC2)=C[C@H](c2ccc3c(c2)OCO3)[C@H]1CCCO,16.5
8,COc1ccc(NC(=O)/C(C#N)=C/c2cccnc2)c(OC)c1,15.8
9,O=C(O)CSc1nc2c(c(C(F)(F)F)n1)CCc1ccccc1-2,16.2
10,CCSc1nc(O)c(Cc2ccccc2)c(=O)[nH]1,1.39
11,COc1ccc(-c2nn(-c3ccccc3)cc2CNCc2cccnc2)c(F)c1,0.0314
12,CCOC(=O)NC(=O)/C(N=Nc1cccc(C(F)(F)F)c1)=C(\C)O,7.38
13,CN1CCN(S(=O)(=O)c2ccc3c(c2)OCCO3)CC1,9.55
14,COCc1cc(C)n(CC(=O)Nc2c(C)cccc2C)c(=O)c1C#N,6.18
15,O=C(Nc1sc2c(c1C(=O)O)CCC2)c1ccccc1F,-0.607
16,c1ccc2sc(N3CCN(Cc4nnnn4CC4CCCO4)CC3)nc2c1 (centres unmarked),-9.39
17,CCc1nn(C(C)C(=O)N2CC(C)CC(C)C2)c(=O)c2cc3occc3n12 (centres unmarked),3.55
18,Cc1cccc(C(=O)N2CCc3c([nH]c4ccccc34)C2CC(C)C)n1 (centres unmarked),6.68
19,O=C(CSc1nc2cc([N+](=O)[O-])ccc2n1-c1ccc(F)cc1)NC1CCS(=O)(=O)C1 (centres unmarked),-2.32
20,COc1ccc(C(=O)N2CC3(C)CC2CC(C)(C)C3)cc1 (centres unmarked),11.7
21,CCOc1ccc(-n2c(SCC(=O)Nc3cc(C(=O)O)ccc3Cl)nc3ccccc3c2=O)cc1,20.5
22,CCCC(=O)Nc1ccc(N2CCN(C(=O)c3ccccc3C)CC2)cc1,1.89

row,Structure (SMILES),"hERG current change (%, negative = inhibition) at 1uM [%]"
1,CCOCCCNC(=O)c1cn(C)c2ccc(S(=O)(=O)N3CCCC3)cc2c1=O,16.7
2,S=C(NCCCn1ccnc1)Nc1ccc(Cl)cc1Cl,9.18
3,O=C(NC1CCCCC1)c1ccc(CNc2nc(=S)[nH]c3ccccc23)cc1,4.71
4,CC(C)c1ccc(OCC(=O)Nc2cccc3c2CCCC3)cc1,5
5,CS(=O)(=O)c1ccc(Cl)c(NC(=O)Cc2c(F)cccc2Cl)c1,13.5
6,O=C(CSC1CCCCC1)Nc1nccs1,3.01
7,O=C1CC(=O)N(Cc2ccccc2)C(=S)N1,11.3
8,CN1C(=O)SC(Nc2ccccc2C(=O)O)C1=O (centres unmarked),5.34
9,CCOC(=O)c1cnn(-c2ccccc2)c1NC(=O)c1ccccc1,5.31
10,O=C(NCc1cccs1)c1ccc([N+](=O)[O-])cc1,-0.22
11,COCc1cc(C)nc(SCC(=O)Nc2ccccc2N2CCOCC2)c1C#N,8.19
12,O=C(N/N=C/c1ccc(-c2cccc(C(F)(F)F)c2)o1)c1ccccc1Br,6.99
13,COc1cc(-c2cc3nc4ccccc4n3c(N)c2C#N)cc(OC)c1OC,-1.48
14,O=S(=O)(c1ccc(F)c(F)c1F)N1CCN(C(=S)NCc2ccccc2)CC1,10.3
15,Cc1cc(C)cc(-n2c(=O)c3sccc3n(CC(=O)NCc3ccco3)c2=O)c1,-10.7
16,O=C(c1ccco1)N1CCN(Cc2cc(=O)c(OCc3ccc([N+](=O)[O-])cc3)co2)CC1,-29.4
17,N#C/C(=C\c1ccc(-c2cccc([N+](=O)[O-])c2)o1)C(=O)N1CCOCC1,8.18
18,O=C(c1ccco1)N1CCN(Cc2nnc(-c3ccccc3)o2)CC1,-6.25
19,COc1cc(OC)cc(C(=O)NC2CCN(C(=O)N3c4ccccc4Sc4ccccc43)CC2)c1,12.9
20,CC1(C)CC(C(CC(=O)Nc2nccs2)c2ccccc2)CCO1 (centres unmarked),13.4
